From PubChem BioAssay AID360 (National Center for Advancing Translational Sciences (NCATS), 2006)
The campaign covered roughly 48,000 compounds. About 550 (1.1%) were called active. Roughly 4% stayed inconclusive and do not appear here. No stated cut-off is given here; in the data, active means potency below about 15 µM; inconclusive means mostly about 16 µM to 33 µM; inactive means weaker than that. Some of the results follow.

target: Lysosomal acid glucosylceramidase (Homo sapiens) (UniProt P04062); test: Glucocerebrosidase; conditions: purified enzyme, resorufin glucoside fluorescence (screen aimed at inhibitors), 20 min;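 further: the screen sought inhibitors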
In short: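 Normal human glucocerebrosidase (0.2 nM final) was assayed with resorufin β-D-glucopyranoside (30 uM final) in 50mM citric acid/KH2PO4, 10mM sodium taurocholate, 0.01% tween-20, pH 5.9. Compounds were titrated; fluorescence (Ex 548, Em 600) read after 20 min at RT.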
Potency means the concentration at half of the fitted maximal effect.

Chain of UniProt P04062 (P04062 whole entry, looked up): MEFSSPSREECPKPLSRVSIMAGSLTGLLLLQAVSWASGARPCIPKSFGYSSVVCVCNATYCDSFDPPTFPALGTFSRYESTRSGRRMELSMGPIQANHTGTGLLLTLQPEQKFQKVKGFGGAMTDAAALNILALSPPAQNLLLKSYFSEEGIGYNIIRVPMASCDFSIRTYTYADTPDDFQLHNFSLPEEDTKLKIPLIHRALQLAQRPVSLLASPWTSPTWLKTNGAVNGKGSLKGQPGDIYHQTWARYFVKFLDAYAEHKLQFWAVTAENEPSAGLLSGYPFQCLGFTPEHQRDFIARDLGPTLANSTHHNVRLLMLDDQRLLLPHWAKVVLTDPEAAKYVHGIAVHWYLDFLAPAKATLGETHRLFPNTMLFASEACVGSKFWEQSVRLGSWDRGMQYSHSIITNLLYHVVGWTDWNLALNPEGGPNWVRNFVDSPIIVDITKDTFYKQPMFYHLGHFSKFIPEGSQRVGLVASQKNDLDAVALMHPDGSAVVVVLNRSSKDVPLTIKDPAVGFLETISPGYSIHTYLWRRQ

Potency, inactive:
CCOC(=O)C1Cc2ccccc2CN1 (stereo not given) > 76.9 µM
CC(C)OCCCNc1ncnc2c1[nH]c1ccccc12 > 76.9 µM
CCOC(=O)CSc1nc2cc3c(cc2cc1C#N)OCO3 > 76.9 µM
O=C(CSCSCC(=O)NCC1CCCO1)NCC1CCCO1 (stereo not given) > 76.9 µM
Cn1c(=O)c2c(ncn2CC(=O)Nc2ccccc2Sc2ccccc2)n(C)c1=O > 76.9 µM
Cc1cc(/N=C/C=C2\N(C)c3ccccc3C2(C)C)n(CCC#N)n1 > 76.9 µM
Cc1nn2c3c(cnc2c1-c1ccccc1)C(=O)CC(C)C3 (stereo not given) > 76.9 µM
COc1ccccc1CNC(=O)C1CCN(c2nc3ccccc3o2)CC1 > 76.9 µM
O=C(CCCn1c(SCC(=O)c2ccc(F)cc2)nc2ccccc2c1=O)NCc1ccco1 > 76.9 µM
CC(=O)OC(Cn1ccnc1)c1ccccc1 (stereo not given) > 76.9 µM
O=C1CCC(=O)N1CNc1ccc(Oc2ccccc2)cc1 > 76.9 µM
C=CC(=C)CC(NC)c1ccccc1 (stereo not given) > 76.9 µM
c1ccc(-n2nnnc2Oc2ccc(-n3ccnc3)cc2)cc1
COc1ccc2c(c1)c1ncnc(N3CCN(Cc4ccc5c(c4)OCO5)CC3)c1n2C
Cc1ccc(CNC(=O)CSc2nc(N3CCCCC3)nc(N3CCCCC3)n2)cc1 > 76.9 µM
CN(C)Cc1c(O)ccc2occ(C(=O)c3ccccc3)c12 > 76.9 µM
CC1CCN(C(=O)C2CC(c3ccc(F)cc3)=NO2)CC1 (stereo not given) > 76.9 µM
Cc1ccc2c(c1)N(CC(=O)N1CCCCC1c1cccnc1)C(=O)CO2 (stereo not given) > 76.9 µM
Nc1nc(CSc2nc3ccccc3s2)nc(N2CCCCC2)n1 > 76.9 µM
CN1C(=O)NC(NC(=O)C2CCCCC2)(C(F)(F)F)C1=O (stereo not given) > 76.9 µM
COc1ccc(C2C(C(=O)Nc3cc(C)on3)c3ccccc3C(=O)N2C)cc1OC (stereo not given) > 76.9 µM
O=C1c2ccccc2S(=O)(=O)N1Cc1cc(=O)n2ccsc2n1 > 76.9 µM
O=C(NCCN1CCOCC1)c1cc2ccccc2o1 > 76.9 µM
CS(=O)(=O)N1CCC(C(=O)Nc2ccc(F)cc2F)CC1 > 76.9 µM
CN1/C(=C/C(=O)c2nc(S(C)(=O)=O)ncc2Cl)C(C)(C)c2ccccc21 > 76.9 µM
COc1ccc(CNC(=O)C2CC(c3ccc(F)cc3)=NO2)cc1 (stereo not given) > 76.9 µM
O=C(CCNS(=O)(=O)c1ccc(Cl)cc1)N1CCC2(O)CCCCC2C1 (stereo not given) > 76.9 µM
CN(CC(=O)NCCc1ccccc1)S(=O)(=O)c1cccs1 > 76.9 µM
CCCOc1ccc(-c2nnc(-c3ccncc3)o2)cc1 > 76.9 µM
COc1ccc(-n2nc3c(c2NC(=O)C2CC2)CS(=O)C3)cc1 (stereo not given) > 76.9 µM
CCOC(=O)N1CCN(C(=O)c2cc(S(=O)(=O)N3CCCC3)cn2C)CC1 > 76.9 µM
COc1ccc(N2CC(C(=O)Nc3ccc(N4CCOCC4)cc3)CC2=O)cc1 (stereo not given) > 76.9 µM
O=C(c1ccc(S(=O)(=O)N2CCOCC2)cc1)N1CCN(c2ccccc2F)CC1 > 76.9 µM
CCOC(=O)C1=C(C)NC(C)=C(C(=O)OCC)C1C(=O)OCC(=O)c1ccc2c(c1)OCCO2 > 76.9 µM
CN(CCOc1ccc(Cl)cc1)c1ccc(S(=O)(=O)N2CCCCC2)cn1 > 76.9 µM
CCn1c(SCC(=O)N2CCN(c3ccc(F)cc3)CC2)nnc1-c1ccncc1 > 76.9 µM
Cc1noc(C)c1S(=O)(=O)NCCCN1CCN(Cc2ccccc2)CC1 > 76.9 µM
O=C(O)c1ccccc1C(=O)Nc1ccccn1 > 76.9 µM
COc1cc(OC)cc(-c2nnc(SCC(=O)N3CCCC3)o2)c1 > 76.9 µM
CC(CNS(=O)(=O)c1cc(Cl)ccc1Cl)CN(C)C (stereo not given) > 76.9 µM
Cc1cccc(C)c1NC(=O)Nc1cccs1 > 76.9 µM
Cn1cc(/C(Cc2ccccc2)=N\O)c2ccccc21 > 76.9 µM
Cc1cc(C(F)(F)F)c2c(=O)[nH]c(=O)n(Cc3ccccc3)c2n1 > 76.9 µM
Nc1ccc(-c2nnc(-c3ccc(-c4ccccc4)cc3)o2)cc1 > 76.9 µM
O=C1CC(N2CCN(C/C=C/c3ccccc3)CC2)C(=O)N1Cc1cccs1 (stereo not given) > 76.9 µM
COc1cc2[nH]c(=O)n(CCC(=O)NC3CCN(Cc4ccccc4)CC3)c(=O)c2cc1OC > 76.9 µM
Cc1cc(C)nc(SCC(=O)O)n1 > 76.9 µM
O=C(NCc1ccncc1)c1cnccn1 > 76.9 µM
NCCCCCc1nnc(SCC(=O)c2ccc(Cl)cc2)o1 > 76.9 µM
O=C(Cn1c(CN2CCCCC2)nc2ccccc2c1=O)NC1CCCCC1 > 76.9 µM
COc1cccc(N(C(=O)c2cccs2)c2nc3ccccc3s2)c1 > 76.9 µM
Cc1cccc(NC(=O)c2cc(NC(=O)C3CCCCC3C(=O)O)ccc2N2CCCCC2)c1 (stereo not given)
COC(=O)c1[nH]c2ccc(C)cc2c1NC(=O)CN1CCc2cc(OC)c(OC)cc2C1 > 76.9 µM
N#CCCCSc1nnc(CSc2nc3ccccc3s2)n1-c1ccccc1 > 76.9 µM
COc1ccc2[nH]c(=O)c(CN(Cc3ccc(C)cc3)Cc3nnnn3CC3CCCO3)cc2c1 (stereo not given) > 76.9 µM
COc1ccc(N(Cc2ccco2)C(=O)c2ccccc2F)cc1OC > 76.9 µM
CCCCn1c(-c2cc(Cl)ccc2OC)n[nH]c1=S > 76.9 µM
COc1ccc(Cl)cc1C(=O)Nc1nnn(C)n1 > 76.9 µM
CCCc1cc(C(=O)N2CCN(c3ccccc3C)CC2)cs1 > 76.9 µM
COc1cc(NC(=O)C(C)Oc2ccccc2)c(C(=O)O)cc1OC (stereo not given) > 76.9 µM
CCOC(=O)c1[nH]c2cc(OC)c(OC)cc2c1NC(=O)CN1CCN(C)CC1 > 76.9 µM
Cn1c(N2CCC(C(N)=O)CC2)nc2c1c(=O)n(Cc1ccc(Cl)cc1)c(=O)n2C > 76.9 µM
CCC1(CC)C(=O)N=C2c3ccccc3C(=O)N21 > 76.9 µM
CCOC(=O)N1CCN(C(=O)CC(C(=O)N2CCc3ccccc32)n2ccnc2)CC1 (stereo not given) > 76.9 µM
Cc1c(C(=O)OCC(=O)N(CCC#N)c2ccccc2)oc2c1ccc1ccccc12 > 76.9 µM
CCOC(=O)C(NC(C)=O)(NS(=O)(=O)c1ccccc1)C(F)(F)F (stereo not given) > 76.9 µM
Cn1c(=O)[nH]c(=O)c2c1nc(CN1CCN(c3cccc(Cl)c3)CC1)n2CCN1CCOCC1 > 76.9 µM
Cn1c(CSCc2ccccc2Cl)nnc1SCC(=O)Nc1nccs1 > 76.9 µM
CCn1cc(C(=O)NCC2CCCO2)c(=O)c2cc(S(=O)(=O)N3CCC(C)CC3)ccc21 (stereo not given) > 76.9 µM
Cc1cccc(NS(=O)(=O)c2ccc(Oc3ccccc3)cc2)n1 > 76.9 µM
CCOC(=O)C1=C(C)Nc2ccccc2N=C1NC(=O)c1cccc(S(=O)(=O)N(C)C)c1 > 76.9 µM
Cc1cc(-n2[nH]c(C)c(C)c2=O)nc(-c2ccccc2O)n1 > 76.9 µM
Cc1cc(NC(=O)C(C)C)ncc1NC(=O)c1cccc(F)c1 > 76.9 µM
COC(=O)C(C)Sc1nc2c(c(=O)[nH]c(=O)n2C)n1CCCc1ccccc1 (stereo not given) > 76.9 µM
Cc1cc2c(c(=O)n1C1CC1)C(c1cccc(Cl)c1)C(C#N)=C(N)O2 (stereo not given) > 76.9 µM
O=C(N1CCOCC1)N(Cc1cccs1)C1CCCC1 > 76.9 µM
COc1ccccc1N(CC(=O)NC1CCCCC1)C(=O)CCC(=O)Nc1ccccn1 > 76.9 µM
COc1ccccc1NC(=O)CSc1nnc(C)o1 > 76.9 µM
CC(=O)N1CCc2cc(S(=O)(=O)NCCCOC(C)C)ccc21 > 76.9 µM
COc1ccccc1C1c2c(oc3ccc(Cl)cc3c2=O)C(=O)N1c1cc(C)on1 (stereo not given) > 76.9 µM
COc1cccc(N2CCN(CC(=O)c3c[nH]c4ccc(OC)cc34)CC2C)c1 (stereo not given) > 76.9 µM
Cn1c(=O)c2c(ncn2CC(=O)Nc2ccc(Cl)cc2Cl)n(C)c1=O > 76.9 µM
CC(C)(C)C(=O)Nc1ncc(C(F)(F)F)cc1Cl > 76.9 µM
CCOC(=O)CSc1nnc(-c2ccco2)n1-c1ccccc1 > 76.9 µM
Cc1ccc(-c2nn3c(C)nnc3s2)cc1NC(=O)c1ccc(-c2ccc(Cl)cc2Cl)o1 > 76.9 µM
Cc1cccc(N(CC(=O)NCc2ccc3c(c2)OCO3)C(=O)CCC(=O)Nc2ccccn2)c1 > 76.9 µM
CCC(C)(C(=O)NC1CCCC1)N(Cc1cccs1)C(=O)Cc1cccs1 (stereo not given) > 76.9 µM
CCCCC(=O)Nc1ccc2c(c1)nc1n2CCSC1
CC1=C(C(=O)Nc2ccccc2)C(c2cccs2)C(C#N)=C(SCC#N)N1 (stereo not given) > 76.9 µM
O=C(O)Cn1cc(C(=O)c2cccs2)c2ccccc21 > 76.9 µM
